The supplement of paper PMC12355420
Structures can show the parent of a compound that is named as a salt. Some of the results follow. Many values rest on one well or one pass, so single values are uncertain.
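Also: screen of an FDA-approved drug library, NanoLuc luminescence read after lysing the treated cells, taken as a measure of mutant VPS33A protein stability.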

The compounds below were run on HeLa VPS33A KO + NLuc-VPS33A R498W (assay: relative mutant VPS33A R498W amount (NanoLuc luminescence) vs DMSO (fraction of DMSO); HeLa model of a glycosaminoglycan (GAG) storage disease; KI is knock-in and KO knock-out; SDC1 is syndecan 1; higher = higher mutant VPS33A level). Conditions: 50 µM; 24 h.
With `Cc1cn([C@H]2C[C@H](N=[N+]=[N-])[C@@H](CO)O2)c(=O)[nH]c1=O` [Zidovudine] the “relative mutant VPS33A R498W amount” value was 1.71. With `Cc1cn(-c2cc(NC(=O)c3ccc(C)c(Nc4nccc(-c5cccnc5)n4)c3)cc(C(F)(F)F)c2)cn1` [Nilotinib(AMN-107)] the “relative mutant VPS33A R498W amount” value was 0.49. For `CCOC(=O)c1ccc(OC(=O)CCCCCNC(=N)N)cc1` [Gabexate mesylate], the “relative mutant VPS33A R498W amount” value was 0.914. In the case of `NNc1nncc2ccccc12` [Hydralazine HCl], the “relative mutant VPS33A R498W amount” value was 1.07. In the case of `O=C(O)/C=C/c1ccc(Cn2ccnc2)cc1` [Ozagrel HCl], the “relative mutant VPS33A R498W amount” value was 1.49. For `C[C@H]1O[C@H](O[C@H]2[C@H](O)[C@@H](O)[C@@H](O[C@@H]([C@H](O)[C@@H](O)C=O)[C@H](O)CO)O[C@@H]2CO)[C@H](O)[C@@H](O)[C@@H]1N[C@H]1C=C(CO)[C@@H](O)[C@H](O)[C@H]1O` [Acarbose], the “relative mutant VPS33A R498W amount” value was 1.07. `C#C[C@]1(O)CC[C@H]2[C@@H]3CCC4=CC(=O)CC[C@@H]4[C@H]3CC[C@@]21CC` [Levonorgestrel] was tested, and the “relative mutant VPS33A R498W amount” value was 0.94. With `CN(C)/N=N/c1[nH]cnc1C(N)=O` [Dacarbazine] the “relative mutant VPS33A R498W amount” value was 1.
